Test results published in ChEMBL document CHEMBL1201862, “PubChem BioAssay data set” (2004).
Where a name gives a salt, the structure may show the parent alone.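 Interpolation was linear, between the two tested concentrations surrounding the appropriate level; five concentrations were tested over 48 hours in 96-well plates. The concentration for 50% growth inhibition is given as GI50.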 The source made the active and inactive calls. No stated cut-off is given here; in the data, active = GI50 up to about 1.1 µM and inactive = higher.

system: NCI-H322M; test: NCI-60 cell line screen, 48 h

| SMILES | GI50 |
| --- | --- |
| CCN(CC)CC(=O)Nc1c(C(N)=O)nnn1Cc1cc(Cl)c(C(=O)c2ccc(Cl)cc2)c(Cl)c1 | inactive: 32.1 µM |
| Clc1ccc(-c2nnc(-c3nsc4ccccc34)o2)cc1 | inactive: 44.4 µM |
| Nc1ccc(C(=O)c2cn(CCN3CCOCC3)c3ccccc23)c2ccccc12 | inactive: 39.6 µM |
| COc1cc2ccc3c4cc(OC)c(OC(C)C)cc4c[n+](C)c3c2cc1OC | inactive: > 100 µM |
| O=C(O)CCC(NC(=O)c1ccc(Nc2nc3cc(C(F)(F)F)ccc3nc2C(=O)O)cc1)C(=O)O (stereo not drawn) | inactive: > 100 µM |
| COC(=O)[C@@]12C3=NO[C@]1(C(=O)OC)C(O[Si](C)(C)C(C)(C)C)[C@H]1OC(C)(C)O[C@H]1[C@@H]2C(OCc1ccccc1)CC3 (stereo partly drawn) | inactive: 43 µM |
| Nc1nc(SCc2ccccn2)c2ncn(C3CCCC3)c2n1 | inactive: > 100 µM |
| COCCCNC(=O)C1=C(C)NC(C)=C(C(=O)NCCCOC)C1 | inactive: > 100 µM |
| N#CCCN(CCC#N)c1ccc(/C=N\c2ccc(F)cc2)cc1 | inactive: > 66.7 µM |
| Cc1cc2c(cc1Cl)SC(NNC1=NCCN1)=NS2(=O)=O | inactive: > 10 µM |
| CCOc1ccc(NC(=S)N/C=C(/C(C)=O)C(=O)Nc2ccccc2C)cc1 | inactive: > 100 µM |
| CC(Oc1ccc(Cl)cc1Cl)C(=O)NN1C(=O)CC(=O)N(c2ccccc2)C1=S (stereo not drawn) | inactive: 54.5 µM |
| O=C(O)CC(O)(c1ccccc1C(=O)O)c1cccc2ccccc12 (stereo not drawn) | inactive: > 100 µM |
| COC(=O)CC(NC(=O)OCc1ccccc1)C(C(=O)OCc1ccccc1)C1(C)OCCO1 (stereo not drawn) | inactive: 90.2 µM |
| CC1(C)OC(=O)C(=Cc2ccc(O)cc2)C(=O)O1 | inactive: > 100 µM |
| CC1CNC(c2ccc3c(c2)Cc2cc(C4=NC(C)CN4)ccc2-3)=N1 (stereo not drawn) | inactive: 23.4 µM |
| N#C/N=C1\NCCC(=O)N1CCc1c[nH]c2ccccc12 | inactive: > 100 µM |
| C=C1C(=O)OC2C1CCC(C)C1(O)C=CC(=O)C21C (stereo not drawn) | inactive: > 10 µM |
| O=C1C2=C(SCCS2)C(=O)c2ccccc21 | inactive: 1.77 µM |
| COc1cc(-c2nn3c(=O)n(-c4ccc(Cl)cc4)c(=O)nc3s2)cc(OC)c1OC | inactive: > 55.1 µM |
| Cc1csc(CP(=O)(OC(C)C)OC(C)C)n1 | inactive: > 100 µM |
| CCCC(CC)c1cc(O)c(O)cc1C(CC)CCC (stereo not drawn) | inactive: > 10 µM |
| Cc1cc(C)nc(NS(=O)(=O)c2ccc(Nc3c4ccccc4nc4c(C(=O)NCCN(C)C)ccc(Cl)c34)cc2)n1 | active: 0.962 µM |
| Cc1c(C2Cc3ccccc3N2C(=O)/C=C\C(=O)O)c2ccccc2n1C (stereo not drawn) | inactive: 22.3 µM |

| SMILES | GI50 |
| --- | --- |
| N#CC(NNC(=O)Cc1ccccc1)c1c(O)ccc2ccccc12 (stereo not drawn) | inactive: 4.19 µM |
| Nc1nc(Cl)cc(NCC2(CO)CC(OCc3ccccc3)C2)n1 (stereo not drawn) | inactive: > 100 µM |
| Nc1nc(SCC(=O)c2ccccc2)nc2nc3c(c(-c4ccccc4)c12)CCCC3 | inactive: 12.7 µM |
| Cc1ccn2c(=O)cc(CN3CCOCC3)nc2c1 | inactive: > 100 µM |
| Cc1cc(N)c(C)c2c1[nH]c1ccc(O)cc12 | inactive: > 100 µM |
| O=C(CC1(O)C(=O)Nc2c(Cl)ccc(Cl)c21)c1ccco1 (stereo not drawn) | inactive: 44.8 µM |
| C=CC(OCC)(OCC)OCC | inactive: > 100 µM |
| Cc1nc(=O)n2c(C)n[nH]c2c1C(=O)O | inactive: > 100 µM |
| COc1ccc(C(c2ccc(C(C)C)cc(=O)c2O)c2ccc3cccnc3c2O)cc1 (stereo not drawn) | inactive: 3.23 µM |
| Cc1ccc(P(c2ccc(C)cc2)c2ccc(C)cc2)cc1 | inactive: 35.6 µM |
| OC(COc1ccccc1)CN1CCCCC1 (stereo not drawn) | inactive: > 100 µM |
| Cc1cc2c(cc1C)[n+]([O-])c(N1CCN(c3ccc([N+](=O)[O-])cc3)CC1)c(C#N)[n+]2[O-] | inactive: > 100 µM |
| Clc1cc(Br)c2c3c(c(Br)cc(Cl)c13)C(Br)=C2Br | inactive: 81.3 µM |
| O=C(O)/C(=C/c1ccccc1[N+](=O)[O-])c1cccs1 | inactive: > 100 µM |
| CCOC(=O)NC(Nc1ccc(F)c(F)c1)(C(=O)OCC)C(F)(F)F (stereo not drawn) | inactive: > 100 µM |
| CCN(CC)C1Oc2cc3c(cc2C(c2cccc(OC)c2OC)C1C)OCO3 (stereo not drawn) | inactive: 13.8 µM |
| CC(=O)C(C(C)=O)[C@H]1OC(C)(C)O[C@H]1[C@H]1COC(C)(C)O1 | inactive: 41.3 µM |
| Cc1cc(N(CCC#N)CCC#N)ccc1/C=C1N=C(/C=C\c2ccccc2)N(NC(=O)CC(=O)Nc2ccccc2Cl)C\1=O | inactive: > 100 µM |
| COC(=O)C(=O)C(C#N)c1ccc(CC#N)cc1 (stereo not drawn) | inactive: > 100 µM |
| COc1ccc(OC)c(/C=C/c2ccnc3ccccc23)c1 | active: 0.553 µM |
| c1ccc2c(c1)Cn1c-2nc2ccccc21 | inactive: 86.9 µM |
| Cc1ccc2c(c1)CN(C(=O)CCC(=O)OCc1ccccc1)c1ccc(C)cc1CN2C(=O)CCC(=O)OCc1ccccc1 | inactive: > 34 µM |
| N#Cc1c(C[n+]2ccccc2)c2ccccc2oc1=O | inactive: > 100 µM |
| O=C1c2cccc3c(Cl)ccc(c23)C(=O)N1CCCN1CCN(CCCN2C(=O)c3cccc4c(Cl)ccc(c34)C2=O)CC1 | inactive: > 100 µM |

| SMILES | GI50 |
| --- | --- |
| CCOC(=O)[C@H](C)OC(=O)[C@@](C)(NC(=O)c1ccccc1C(=O)OC)[C@@H]1NC=C(C(=O)OC)CS1 | inactive: > 100 µM |
| NC(=O)Nc1cc(O)ccc1/N=N/c1ccc(S(=O)(=O)Nc2ccccn2)cc1 | inactive: > 100 µM |
| Nc1c2cc3ccc2nc2ccc(cc12)OCCOCCOCCOCCOCCOCCO3 | inactive: > 10 µM |
| CC(C)N(C(=O)C12C3C4C5(C#N)C3C1(C#N)C5C42I)C(C)C (stereo not drawn) | inactive: > 100 µM |
| CC(C)=CCCC(C)CCOS(=O)C(F)(F)F (stereo not drawn) | inactive: 26.8 µM |
| O=C(O)CN1CCN(CC(=O)O)CCN(CC(=O)O)CCN(CC(=O)O)CC1 [TETRAXETAN] | inactive: > 100 µM |
| CC1=CC(=O)[C@@H](O)[C@]2(C)[C@H]3[C@@]4(O)OC[C@]35[C@H]([C@@H](C)[C@H]4O)[C@@H](O)C(=O)O[C@@H]5C[C@@H]12 | inactive: 2.61 µM |
| C[N+](C)([O-])CCC=C1c2ccccc2CCc2ccccc21 | inactive: 45.5 µM |
| O=C(C(=O)N1CC2C=CC1CC2)c1c[nH]c2ccccc12 (stereo not drawn) | inactive: > 100 µM |
| COc1cccc(C2c3cc4c(cc3OC(O)C2C)OCO4)c1OC (stereo not drawn) | inactive: 12.1 µM |
| C[C@@H]1OC(=O)C[C@H]2CC(=O)N(CCC3CN(C(=O)c4ccccc4)c4ccccc43)C[C@@H]21 (stereo partly drawn) | inactive: > 100 µM |
| O=S1(=O)C[C@H](NCc2ccccc2)[C@H](NCc2ccccc2)C1 | inactive: > 100 µM |
| Cc1nc2c(O)cccc2c(=O)[nH]1 | inactive: 877 µM |
| C=CCC1=CC2(OC)C(=O)C(OC)(OC)C1C1C(OC)(OC)C(=O)C(OC)=CC12CC=C (stereo not drawn) | inactive: > 100 µM |
| Cn1c(=O)c2c(-c3ccccc3)onc2n(C)c1=O | inactive: 53.1 µM |
| CC(=O)O[C@@H]1C=C(C)[C@H](CBr)O[C@@]2(C)CC[C@H](Br)C(C)(C)[C@H]12 | inactive: > 100 µM |
| O=C1C(Cl)C(c2cc3cc(Br)ccc3nc2Cl)N1c1c(Cl)cccc1Cl (stereo not drawn) | inactive: > 25 µM |
| COc1cc2c3c(c4ccc(OC)c(OC)c4c2cc1OC)CN1CCC[C@@H]1C3 [TYLOCREBRINE] | active: 0.0755 µM |
| Oc1ccc(-c2nc3cc(F)ccc3s2)cc1 | inactive: 29.3 µM |
| COC(=O)C1OC(SCCN)C(O)C(O)C1O (stereo not drawn) | inactive: > 100 µM |
| CC(=O)Nc1ccc(N2C(=O)/C(=C\c3cccc(Oc4ccccc4)c3)S(=O)(=O)C2c2ccccc2)cc1 (stereo not drawn) | inactive: > 100 µM |
| CCCN1C(=O)/C(=C\c2ccc(OC)c(OC)c2)S/C1=N\c1ccccc1 | inactive: > 100 µM |
| COc1ccc(C2=NN(C(=O)c3cccnc3)C(O)(c3cc(F)c(Cl)cc3Cl)C2)cc1OC (stereo not drawn) | inactive: 23.8 µM |
| O=C(CC1C(=O)Nc2ccccc2S1(=O)=O)Nc1ccc(Cl)cc1 (stereo not drawn) | inactive: 58.5 µM |

| SMILES | GI50 |
| --- | --- |
| CN(/N=C/c1ccc(Cl)c(Cl)c1)C1=NCCCCN1 | active: < 0.01 µM |
| N#CC(c1cc(Cl)ncn1)c1nc2ccccc2s1 (stereo not drawn) | inactive: 11 µM |
| OC(CCN1CCN(CCOC(c2ccccc2)c2ccccc2)CC1)c1ccc(Br)cc1 (stereo not drawn) | inactive: 14.2 µM |
| COc1ccc(C(c2c[nH]c3ccc(Br)cc23)c2c[nH]c3ccc(Br)cc23)cc1 | active: 0.278 µM |
| CN(C)CCNC(=O)c1ccc2ccc3cccnc3c2n1 | inactive: 9.51 µM |
| CC[C@@]1(O)C(=O)OCc2c1cc1n(c2=O)Cc2cc3c(CN(C)C)c(O)ccc3nc2-1 [TOPOTECAN HYDROCHLORIDE] | active: 0.264 µM |
| N#Cc1c(Nc2nc3ccccc3s2)c2ccccc2n2c1nc1ccccc12 | inactive: > 100 µM |
| CN1C/C(=C\c2ccc(C(=O)O)cc2)C(=O)/C(=C/c2ccc(C(=O)O)cc2)C1 | inactive: > 100 µM |
| Cc1ccc(S(=O)(=O)N2CCC2c2ccccc2)cc1 (stereo not drawn) | inactive: > 100 µM |
| COC(=O)NNc1c([N+](=O)[O-])cnn(-c2ccccc2)c1=O | inactive: 5.87 µM |
| Nc1nc2c(c(-c3ccccc3Cl)n1)COC/C2=C\c1ccccc1Cl | inactive: 16.6 µM |
| CC1=NN(c2cccc(Cl)c2)C2(SCC(=O)N2c2nc3ccccc3s2)/C1=C\c1cccs1 (stereo not drawn) | inactive: 18.9 µM |
| CN(C)CC1(C)CC/C(=C\c2ccc(Cl)cc2)C1=O (stereo not drawn) | inactive: 53.8 µM |
| CCc1ccc(CCC(=O)O)nc1 | inactive: > 100 µM |
| Cc1cc(C)nc(NS(=O)(=O)c2ccc(Nc3c4ccccc4nc4c(C(=O)Nc5ccc(S(=O)(=O)Nc6cc(C)on6)cc5)ccc(Cl)c34)cc2)n1 | inactive: 18.6 µM |
| Cc1cccc(Nc2cn(CCOc3ccccc3)c(=O)n(CCOc3ccccc3)c2=O)c1 | inactive: > 100 µM |
| CC(=O)Nc1ccc(/C=C/C(=O)c2sc(-n3nc(-c4ccccc4)cc3-c3ccccc3)nc2C)cc1 | inactive: > 100 µM |
| COc1cccc(Nc2nc(N)nc(N)c2N)c1 | inactive: > 100 µM |
| O=C1c2ccccc2C(=O)c2[nH]c(Cc3ccc(F)cc3)nc21 | inactive: 16 µM |
| CC(=O)c1c(-c2ccc(Cl)cc2)c(C#N)c(=S)n(C2OC(CO)C(O)C(O)C2O)c1-c1ccccc1 (stereo not drawn) | inactive: > 100 µM |
| N#Cc1cnn2cc[nH]c12 | inactive: > 100 µM |
